#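 Tested at 5 concentrations; 48 h exposure; 96-well plates; endpoints linearly interpolated, else capped at highest concentration. GI50 = concentration required for 50% inhibition of growth.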 The source made the active and inactive calls. No stated cut-off is given here; in the data, active = GI50 up to about 1.1 µM and inactive = higher.
# System: NCI-H322M
# Test: NCI tumour cell line growth inhibition, 48 h
row,SMILES,GI50
1,COc1cc(-c2[o+]c3cc(O)cc(O)c3cc2O)cc(O)c1O,inactive: > 100 µM
2,O=C(CON1C(=O)c2ccccc2C1=O)c1ccccc1,inactive: > 100 µM
3,Nc1nncs1,inactive: 2790 µM
4,O=S(=O)(Cc1cnc(O)nc1O)Cc1cnc(O)nc1O,inactive: > 100 µM
5,Cc1c(C(=O)c2ccccc2)[n+]([O-])c2cc(Cl)c(Cl)cc2[n+]1[O-],inactive: 4.61 µM
6,CCOC(=O)CO/N=C\C1=CC(=O)C2CC1C2(C)C (stereo not drawn),inactive: > 100 µM
7,CN/N=C(/Cc1occc(=O)c1O)C(=O)Nc1ccc(C)c(C)c1,inactive: > 100 µM
8,CC(C)(C)c1cc(Cc2ccc(S(C)(=O)=O)cc2)c(O)c(C(C)(C)C)c1,inactive: 14.2 µM
9,COC(=O)CC[N+]1=CCC(c2ccccc2)(c2ccccc2)O1,inactive: > 100 µM
10,S=C(NN=C1NCCCCN1)Nc1ccccc1,inactive: > 100 µM
11,C#CCn1c(=O)c2ccccc2n(CC#C)c1=O,inactive: > 10 µM
12,c1cnc2c(c1)Nc1cnncc1S2,inactive: > 100 µM
13,Cc1ccc(/C=N/Nc2cc(C)c3ccccc3n2)s1,inactive: 7.11 µM
14,C=CC(=O)c1ccc2c(c1)OCCOCCOCCOCCOCCO2,inactive: > 100 µM
15,CCOP(=O)(Cc1nc(C#N)c(N)o1)OCC,inactive: > 100 µM
16,Cc1ccc(/N=N/C(=N/NC(=O)c2ccccc2)c2ccc(N(CCC#N)CCC#N)cc2C)cc1,inactive: 47.6 µM
17,CSC1=C(SC)SC(=C2SC3=C(SC(=C4SCCS4)S3)S2)S1,inactive: > 100 µM
18,CC1(c2cccc(N)c2)C2C(=O)NC(=O)C1C(=O)NC2=O (stereo not drawn),inactive: 74 µM
19,CCCCCCc1cc2cc(-c3csc(-c4ccc(OC)cc4)n3)c(=O)oc2cc1O,inactive: 16.4 µM

row,SMILES,GI50
1,O=CN1CCN(C(=O)c2cc(Cl)cc(Cl)c2)C1=S,inactive: 19.8 µM
2,C=CC(=O)NCCC(=O)OCn1cc(F)c(=O)[nH]c1=O,inactive: 2.93 µM
3,COC1C(OC(=O)/C=C/C=C/C=C/C=C/C(=O)O)CCC2(CO2)C1C1(C)OC1CC=C(C)C (stereo not drawn),inactive: 54 µM
4,CN(/N=C/c1ccc(OCc2cccc(COc3ccc(C=O)cc3)n2)cc1)c1cnn(-c2ccc(Cl)cc2Cl)c(=O)c1Cl,inactive: > 100 µM
5,Oc1cc(-c2ccccc2)cn2c1nc1ccccc12,inactive: 3.27 µM
6,COc1cc2c(cc1OC)C1c3ccccc3CCCN1CC2 (stereo not drawn),inactive: > 100 µM
7,S=P1(Oc2ccccc2)NNP2(=NP(N3CC3)(N3CC3)=NP(N3CC3)(N3CC3)=N2)NN1 (stereo not drawn),inactive: > 100 µM
8,Cn1c(=O)c2c(ncn2CCCCOc2ccc3c(c2)[n+]([O-])nc(N)[n+]3[O-])n(C)c1=O,inactive: 23.2 µM
9,O=CN1CCN(C(=O)c2ccc(Cl)cc2Cl)C1=S,inactive: > 100 µM
10,CC(NCc1c(O)ccc2c(-c3ccccc3)cc(=O)oc12)C(=O)O (stereo not drawn),inactive: > 100 µM
11,O=c1c(-c2ccccc2)c(SCCN2CCCCCC2)n(-c2ccccc2)c(=S)n1-c1ccccc1,inactive: 11.5 µM
12,CC1(C)Cc2c(C#N)c(N)c3c(c2CO1)C(=O)OC3=O,inactive: > 100 µM
13,COc1cccc2cc(C(=O)Nc3ccccn3)c(=N)oc12,inactive: > 100 µM
14,O=c1[nH]nc(Cc2ccccc2)n1/N=C\CC/C=N\n1c(Cc2ccccc2)n[nH]c1=O,inactive: > 100 µM
15,CCOC(=O)C1S/C(=N\c2cccc(Cl)c2C)N=C1C (stereo not drawn),inactive: 34.9 µM
16,COP1(=O)Oc2ccccc2C(=O)C(C(F)(F)F)(C(F)(F)F)O1 (stereo not drawn),inactive: > 100 µM
17,Cc1ccc(NCCN(C)C)c2c(=O)c3cc(O)ccc3oc12,inactive: 14 µM
18,CC(=O)O[C@H]1C[C@H]2[C@@H]([C@H](OC(C)=O)C[C@@H]3CC4(CC[C@@]32C)OOC2(CCCCC2)OO4)[C@@H]2CC[C@H]([C@H](C)CCC(N)=O)[C@@]12C,inactive: 8.91 µM
19,c1ccc2c(NCCCCCCNc3c4ccccc4nc4ccccc34)c3ccccc3nc2c1,active: 0.316 µM

# — ChEMBL document CHEMBL1201862, “PubChem BioAssay data set” (2004)
